# Laboratory results: the supplement of paper PMC11876631
# ± gives the standard deviation of the averaged measurements. Laboratory Escherichia coli strains with one amino-acid change in an essential protein, pooled on minimal glucose agar with carbenicillin or gentamicin at twice the control MIC (plus kanamycin and chloramphenicol for the plasmids), 48 h. Fold change of barcode share against drug-free plates; higher = less susceptible. Active = above 20 in both replicates (the paper's putatively resistant). '<' = one read or none on drug, '>' = one read or none on a drug-free plate. Shares are relative, so most strains fall below 1 when a few take over. Listed are strains with at least 15 reads on both drug-free plates, and hits; most hits rest on fewer reference reads. Replicate rank correlation about 0.5. Edits are read from barcodes.
# B1: cysN; numbered along this chain (parent)
# chain: MNTALAQQIANEGGVEAWMIAQQHKSLLRFLTCGSVDDGKSTLIGRLLHDTRQIYEDQLSSLHNDSKRHGTQGEKLDLALLVDGLQAEREQGITIDVAYRYFSTEKRKFIIADTPGHEQYTRNMATGASTCELAILLIDARKGVLDQTRRHSFISTLLGIKHLVVAINKMDLVDYSEETFTRIREDYLTFAGQLPGNLDIRFVPLSALEGDNVASQSESMPWYSGPTLLEVLETVEIQRVVDAQPMRFPVQYVNRPNLDFRGYAGTLASGRVEVGQRVKVLPSGVESNVARIVTFDGDREEAFAGEAITLVLTDEIDISRGDLLLAADEALPAVQSASVDVVWMAEQPLSPGQSYDIKIAGKKTRARVDGIRYQVDINNLTQREVENLPLNGIGLVDLTFDEPLVLDRYQQNPVTGGLIFIDRLSNVTVGAGMVHEPVSQATAAPSEFSAFELELNALVRRHFPHWGARDLLGDK
# B2: hemH; numbered along this chain (parent)
# chain: MRQTKTGILLANLGTPDAPTPEAVKRYLKQFLSDRRVVDTSRLLWWPLLRGVILPLRSPRVAKLYASVWMEGGSPLMVYSRQQQQALAQRLPEMPVALGMSYGSPSLESAVDELLAEHVDHIVVLPLYPQFSCSTVGAVWDELARILARKRSIPGISFIRDYADNHDYINALANSVRASFAKHGEPDLLLLSYHGIPQRYADEGDDYPQRCRTTTRELASALGMAPEKVMMTFQSRFGREPWLMPYTDETLKMLGEKGVGHIQVMCPGFAADCLETLEEIAEQNREVFLGAGGKKYEYIPALNATPEHIEMMANLVAAYR
# Variants of: B1
# Test: barcode share on antibiotic plates over drug-free plates; higher = less susceptible
# Conditions: with Escherichia coli (laboratory strain); antibiotic: carbenicillin; 2× MIC (3.1 µg/mL)
# Description: (§1)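 A pool of E. coli strains, each edited to carry one amino-acid change in an essential protein, was grown for 48 h on minimal glucose agar with or without antibiotic; strain barcodes were sequenced; mean of two replicates.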
row,Variant,fold change of barcode share
1,M19Q,0.471 ± 0.044
2,M344W,0.982 ± 0.26
3,M19A,0.712 ± 0.28
4,V293A,1.4 ± 0.19
5,M344P,37.9 [active]
6,L232A,0.593 ± 0.1
7,L232Q,1.47 ± 0.4
8,I138A,0.684 ± 0.079
9,V342A,0.789 ± 0.097
10,M19W,0.913 ± 0.24
11,I138Q,1.54 ± 0.62
12,I138D,2.67 ± 0.3
13,V342Q,1.79 ± 0.18
14,M344A,0.781 ± 0.14
15,V293D,9.6 ± 5.1
16,M19D,3.63 ± 0.72

# Same assay, conditions: with Escherichia coli (laboratory strain); antibiotic: gentamicin; 2× MIC (MIC 0.45 µg/mL)
row,Variant,fold change of barcode share
1,L232A,0.0129 ± 0.0037
2,L232Q,0.0854 ± 0.1
3,I138A,0.02731 ± 0.00021
4,M344A,0.0225 ± 0.018
5,L232P,< 0.0173
6,V293P,0.016 ± 0.011

# Variants of: B2
# Test: as above
# Conditions: with Escherichia coli (laboratory strain); antibiotic: carbenicillin; 2× MIC (3.1 µg/mL)
# Description: as §1
row,Variant,fold change of barcode share
1,W69A,0.474 ± 0.091
2,W69D,0.368 ± 0.036
3,W69P,1.01 ± 0.092
4,W69Q,0.306 ± 0.12
5,V124A,0.25 ± 0.045
6,V124P,0.753 ± 0.28
7,V124Q,1.94 ± 1.9
8,L125A,0.16 ± 0.11
9,L125Q,0.323 ± 0.0091
10,L125W,0.177 ± 0.053
11,L189A,0.264 ± 0.035
12,L189P,0.29 ± 0.065
13,L189Q,0.217 ± 0.13
14,L189W,0.33 ± 0.057
15,L190A,0.573 ± 0.03
16,L190D,0.496 ± 0.23

# Same assay, conditions: with Escherichia coli (laboratory strain); antibiotic: gentamicin; 2× MIC (MIC 0.45 µg/mL)
row,Variant,fold change of barcode share
1,W69A,0.00274 ± 0.0029
2,W69D,0.00633 ± 0.0048
3,W69P,209 [active]
4,W69Q,0.0032 ± 0.0011
5,V124A,< 0.00662
6,V124P,7.79 ± 8.2
7,V124Q,0.0225 ± 0.0044
8,L125Q,< 0.00895
9,L125W,0.0088 ± 0.0035
10,L189A,0.00519 ± 0.00059
11,L189P,< 0.0121
12,L189Q,0.0176 ± 0.02
13,L189W,0.00356 ± 0.0019
14,L190A,< 0.00271
15,L190D,0.00626 ± 0.0054
